This list was built around the results that the source calls inconclusive (neither active nor inactive); the mix of calls is not that of the screen. For some of these results: Potencies of inconclusive entries are doubtful fits and often do not repeat. The source made the active and inactive calls. Unless noted, calls follow the shape of the dose curve; as a rule, active = well fitted curve in the direction sought with a large enough effect; inconclusive = small, poorly fitted or top-dose-only effect, or another doubt; inactive = no such curve, though single readings can be large; an effect the other way counts as inactive or inconclusive.
Key:
[1] = biological target: Cytochrome P450 2D6 (Homo sapiens) (UniProt P10635); assay: Cytochrome P450 family 2 subfamily D member 6 (CYP2D6) small molecule antagonists: luciferase biochemical (cell-free) qHTS assay (AID 1645840; active = well fitted curve in the direction sought with a large enough effect in the repeat runs; inconclusive = weak or mixed curves; inactive = no such curve, though single readings can be large; an effect the other way counts as inactive or inconclusive; also: potency is read from the fitted curve at half-maximal effect; nearly all actives have a fitted effect of over 55% in size)
Outline: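 P450-Glo luminescent screen: recombinant CYP2D6 enzyme–proluciferin substrate mix preincubated with compound 10 min at room temperature, then NADPH regeneration added for 1 h at room temperature. Detection reagent added for 20 min; luciferin light read as relative luminescence units.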

[2] = Primary qHTS for inhibitors of nuclear receptor binding SET domain protein 2 (NSD2) in an isogenic RCH-ACV NSD2 p.E1099K mutant (9B) (AID 1645876); also: nearly all actives have a fitted effect of over 70% in size; also: potency is read from the fitted curve at half-maximal effect
[3] = Primary qHTS for inhibitors of nuclear receptor binding SET domain protein 2 (NSD2) in an RCH-ACV wild type WT cells (2C) (AID 1645877); conditions: activity change, negative = cell killing: at 44.9 µM (top of the series) unless noted; also: nearly all actives have a fitted effect of over 70% in size; also: potency is read from the fitted curve at half-maximal effect
[4] = Primary redox qHTS assay for identification of artifact compounds. (AID 1845223); conditions: Amplex Red/HRP redox cycling with DTT, fluorescence; redox activity (% of DA3003): at 53.8 µM (top of the series); also: potency is read from the fitted curve at half-maximal effect
Outline: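 Amplex Red (25 uM) and HRP (250 mU/mL) in HBSS, with compounds for 15 min, then 250 uM DTT for 30 min, room temperature, dark. Fluorescence 525/598 nm read; normalized to DMSO and 10 uM DA3003; Hill fit.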

HEK293 = assay: Cytotoxic Profiling of Annotated Libraries Using Quantitative High-Throughput Screening (AID 1296008); conditions: Five cell lines viability, CellTiter-Glo ATP luminescence, 48-72 h; max response: stronger effect = lower value; also: nearly all actives have a fitted effect of over 60% in size; also: potency is read from the fitted curve at half-maximal effect; as to max response: % is scaled to controls: 0 for no effect and ±100 for the full control effect
Outline: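 Cytotoxicity was measured as CellTiter-Glo ATP luminescence, read after 10 min at room temperature. Compound treatment of the cells lasted 48 or 72 hr at 37 degrees Celsius in a qHTS format.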

SKOV3 = assay: Primary qHTS to identify gynecologic anti-cancer compounds using libraries of approved drugs and bioactive compounds (AID 1345084); conditions: Gynecologic cancer cell panel viability, ATPlite luminescence, 48 h; series mostly up to 57.5 µM; also: nearly all actives have a fitted effect of over 55% in size; also: potency is read from the fitted curve at half-maximal effect
Outline: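 Cells, 1,000 per well, plated 16 h, then exposed 48 h at 37 C to compounds. Viability by ATPlite luminescence after 15 min at room temperature.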

[5] = tested on: Zika virus NS2B-NS3 protease (linked construct); assay: Primary screen NINDS Rhodamine qHTS for Zika virus inhibitors (AID 1347160); conditions: activity change, negative = inhibition: at 57.1 µM (top of the series) unless noted; also: nearly all actives have a fitted effect of over 55% in size; also: potency is read from the fitted curve at half-maximal effect; as to activity change, negative = inhibition: % is scaled to controls: 0 for no effect and ±100 for the full control effect
Outline: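 Purified linked NS2B-NS3 protease (NS2B hydrophilic domain joined to NS3 protease by flexible linker), 25 nM in 10 mM Tris-HCl pH 8.0, 0.01% Tween 20. Compounds titrated, 15 min preincubation at room temperature; 1.5 microM Rhodamine110 substrate, FITC fluorescence change over 15 min.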

[6] = biological target: Calcium and integrin-binding protein 1 (Homo sapiens) (UniProt Q99828); assay: Primary qHTS for Identification of Calcium Integrin Binding Protein 1 (CIB1) Competitor (AID 1508620);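 also: GST tagged CIB1 binding a fluorescein labelled alphaIIb integrin peptide tracer; top concentration of the series differs between compounds; % is scaled to controls: 0 for no effect and ±100 for the full control effect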
Outline: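 CIB1-GST (1 uM final) and compound incubated 15 min at room temperature before adding FITC-alphaIIb peptide tracer (100 nM final). Competition for binding read by fluorescence polarization (ex 480, em 540) after another 15 min at room temperature.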

[7] = tested on: Nanoluciferase (engineered Oplophorus gracilirostris luciferase); assay: Primary Nanoluciferase (NLuc) qHTS assay for identification of artifact compounds. (AID 1845222); also: potency is read from the fitted curve at half-maximal effect
Outline: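 Compounds are pinned into diluted (1:55) conditioned medium of NLuc-expressing S16 cells and held 15 min at room temperature protected from light. Nano-Glo substrate follows, and luminescence is read 5 min later.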

[8] = biological target: Cytochrome P450 2C9 (Homo sapiens) (UniProt P11712); assay: Cytochrome P450 family 2 subfamily C member 9 (CYP2C9) small molecule antagonists: luciferase biochemical (cell-free) qHTS assay (AID 1645842; active = well fitted curve in the direction sought with a large enough effect in the repeat runs; inconclusive = weak or mixed curves; inactive = no such curve, though single readings can be large; an effect the other way counts as inactive or inconclusive; also: potency is read from the fitted curve at half-maximal effect; nearly all actives have a fitted effect of over 55% in size)
Outline: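 Luminescence, after 20 min with luciferin detection reagent, reflected CYP2C9 turnover during a 1 h NADPH-driven reaction at 37C. Enzyme-substrate mix contained 0.4% bovine serum albumin and was preincubated with compound 10 min at room temperature.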

[9] = tested on: Zika virus NS2B-NS3 protease (unlinked complex); assay: Primary screen GU Rhodamine qHTS for Zika virus inhibitors: Unlinked NS2B-NS3 protease assay (AID 1347159); also: potency is read from the fitted curve at half-maximal effect; nearly all actives have a fitted effect of over 60% in size
Outline: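 Noncovalent NS2B hydrophilic domain–NS3 protease domain complex (25 nM) preincubated 15 min at room temperature with compounds (up to 114 microM) in 10 mM Tris-HCl pH 8.0, 0.01% Tween 20; 1.5 microM Rhodamine110 substrate added, fluorescence change over 15 min fitted to Hill equation.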

[10] = biological target: Phospholipid hydroperoxide glutathione peroxidase GPX4 (Homo sapiens) (UniProt P36969); assay: Primary qHTS Assay for Inhibitors of Recombinant Selenoprotein Glutathione Peroxidase 4 (GPX4) (AID 1845192); also: % is scaled to controls: 0 for no effect and ±100 for the full control effect; nearly all actives have a fitted effect of over 65% in size
Outline: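 NADPH consumption, followed by fluorescence at 340/450 nm between 0 and 15 min, reports GPX4 activity via coupled glutathione reductase (100 nM). Enzyme 200 nM was pre-exposed to compound 30 min; 0.5 mM cumene hydroperoxide and 1 mM GSH served as substrates.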
Tags tell the direction and shape of the fitted curve.

Chain of UniProt P10635 (P10635 whole entry, looked up): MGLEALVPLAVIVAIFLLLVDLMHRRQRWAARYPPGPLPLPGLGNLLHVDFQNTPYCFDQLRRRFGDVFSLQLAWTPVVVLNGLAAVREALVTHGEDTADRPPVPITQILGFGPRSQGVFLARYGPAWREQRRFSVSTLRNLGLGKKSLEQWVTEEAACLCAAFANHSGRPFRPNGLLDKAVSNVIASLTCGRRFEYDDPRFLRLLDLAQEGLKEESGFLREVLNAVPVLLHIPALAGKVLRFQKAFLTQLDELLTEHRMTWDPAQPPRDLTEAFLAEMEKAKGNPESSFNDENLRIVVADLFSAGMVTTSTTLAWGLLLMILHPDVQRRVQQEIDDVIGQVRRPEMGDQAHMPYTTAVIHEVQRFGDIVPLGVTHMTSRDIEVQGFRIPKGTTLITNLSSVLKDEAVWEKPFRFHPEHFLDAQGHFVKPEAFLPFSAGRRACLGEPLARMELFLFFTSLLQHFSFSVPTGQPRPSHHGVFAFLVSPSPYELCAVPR
Chain of UniProt P11712 (P11712 whole entry, looked up): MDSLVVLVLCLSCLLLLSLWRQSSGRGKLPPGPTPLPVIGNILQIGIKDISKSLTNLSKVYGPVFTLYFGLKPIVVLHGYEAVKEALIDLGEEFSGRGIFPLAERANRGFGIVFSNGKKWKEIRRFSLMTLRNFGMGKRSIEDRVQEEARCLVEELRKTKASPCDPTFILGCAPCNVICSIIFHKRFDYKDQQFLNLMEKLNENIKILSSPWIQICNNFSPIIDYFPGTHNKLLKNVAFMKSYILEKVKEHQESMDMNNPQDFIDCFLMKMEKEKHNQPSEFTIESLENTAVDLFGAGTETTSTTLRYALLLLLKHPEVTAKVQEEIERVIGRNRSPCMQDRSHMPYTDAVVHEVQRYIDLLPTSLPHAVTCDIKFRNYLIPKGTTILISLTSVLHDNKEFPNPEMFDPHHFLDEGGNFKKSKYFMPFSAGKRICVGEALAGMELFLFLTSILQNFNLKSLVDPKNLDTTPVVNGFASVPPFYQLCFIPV
Chain of UniProt P36969 (P36969 whole entry, looked up): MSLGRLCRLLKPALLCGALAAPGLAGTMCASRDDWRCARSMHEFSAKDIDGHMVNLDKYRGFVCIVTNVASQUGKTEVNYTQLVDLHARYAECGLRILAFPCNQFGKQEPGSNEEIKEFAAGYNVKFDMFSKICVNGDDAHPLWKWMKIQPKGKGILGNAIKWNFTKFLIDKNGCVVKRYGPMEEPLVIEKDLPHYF
Chain of UniProt Q99828 (Q99828 whole entry, looked up): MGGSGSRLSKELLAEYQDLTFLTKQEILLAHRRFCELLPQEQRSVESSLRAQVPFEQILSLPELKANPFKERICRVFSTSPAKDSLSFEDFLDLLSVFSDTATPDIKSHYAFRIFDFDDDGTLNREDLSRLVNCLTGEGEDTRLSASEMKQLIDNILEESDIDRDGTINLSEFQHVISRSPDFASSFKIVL

Which Potency [1] does the source give for COc1ccc(NC(=O)c2ccc(-c3ccc(C(=N)N)cc3C)cc2)cc1N1CCN(C)CC1 here?
The Potency was inconclusive: 37.9 µM [inhibitor, single point].

And the Potency [2]?
Its Potency is “inactive”.

What about the Potency [3] of the same compound?
The Potency was inconclusive: 7.28 µM [inhibitor, partial curve, poor fit].

And the Potency [4]?
The Potency was inconclusive: 26.7 µM [activator, partial curve, poor fit].

And the Potency (HEK293)?
Its Potency is inconclusive: 20.6 µM [inhibitor, single point].

What about the Potency (SKOV3) of the same compound?
The Potency was inconclusive: 35.5 µM [rising, single point].

For CNCCN1CCC(c2cc(CN(C)C(=O)c3cccc(Oc4ccccc4)c3)ccn2)CC1, which Potency [2] is on record?
Its Potency is inconclusive: 10 µM [inhibitor, single point].

And the Potency [3]?
The Potency was inconclusive: 7.96 µM [inhibitor, single point].

What about the Potency [4] of the same compound?
The Potency was inconclusive: 16.4 µM [activator, partial curve, poor fit].

And the Potency (HEK293)?
The Potency was inconclusive: 14.2 µM [inhibitor, single point].

And the Potency (SKOV3)?
The Potency was “inactive”.

With O=C(O)[C@H](Cc1ccccc1)Oc1ccc(-c2ccccc2)cc1 as the compound, how does the Potency [5] read?
Its Potency is inconclusive: 31.6 µM [inhibitor, single point].

What about the Potency [6] of the same compound?
Its Potency is “inactive”.

And the Potency [3]?
Its Potency is “inactive”.

What about the Potency [7] of the same compound?
Its Potency is inconclusive: 8.49 µM [inhibitor, partial curve].

And the max response (HEK293)?
Its max response is inactive: 4.06%.

And the Potency (SKOV3)?
Its Potency is “inactive”.

Which Potency [1] does the source give for NC(=O)c1ccc(F)c2c1C[C@@H](N(C1CCC1)C1CCC1)CO2 here?
Its Potency is inconclusive: 30.1 µM [inhibitor, partial curve, poor fit].

What about the max response (HEK293) of the same compound?
The max response was inactive: -5.17%.

What about the Potency (SKOV3) of the same compound?
Its Potency is inconclusive: 39.8 µM [rising, single point].

Which Potency [1] does the source give for OC1(CN2CCC(COc3noc4cccc(O[C@@H]5CCOC5)c34)CC2)CCOCC1 here?
The Potency was active: 6.74 µM.

And the Potency [8]?
Its Potency is active: 9.52 µM.

And the Potency [2]?
Its Potency is “inactive”.

And the Potency (HEK293)?
The Potency was inconclusive: 18.4 µM [inhibitor, single point].

What about the Potency (SKOV3) of the same compound?
The Potency was inconclusive: 6.31 µM [rising, single point].

For C[C@@H]1CC[C@]2(C(=O)O[C@@H]3O[C@H](CO[C@@H]4O[C@H](CO)[C@@H](O)[C@H](O)[C@H]4O)[C@@H](O)[C@H](O)[C@H]3O)CC[C@]3(C)C(=CCC4[C@@]5(C)CC[C@H](O)[C@](C)(C(=O)O)C5CC[C@]43C)[C@@H]2[C@]1(C)O (stereo partly specified), which Potency [9] is on record?
Its Potency is inconclusive: 25.1 µM [inhibitor, single point].

What about the activity change, negative = inhibition [5] of the same compound?
The activity change, negative = inhibition was inconclusive: -36.2% [inhibitor] [at 15.1 µM].

What about the Potency [10] of the same compound?
Its Potency is “inactive”.

And the Potency [4]?
Its Potency is inconclusive: 5.05 µM [activator, partial curve, poor fit].

And the max response (HEK293)?
The max response was inactive: 3.94%.

What about the Potency (SKOV3) of the same compound?
Its Potency is inconclusive: 10 µM [rising, single point].
